Reference: the supplement of paper PMC10338343
± gives the standard deviation. The entries are a selection whose mix differs from that of the whole data set.

Test system: MIWI (PIWIL1) piRISC loaded with piRNA #1 (30 nt)
Assay: pre-steady-state target cleavage rate (min^-1); MIWI and MILI are mouse PIWI proteins and EfPiwi is from a freshwater sponge; tags in brackets are library labels; higher = faster piRNA-guided slicing of the target
Details: guide: piRNA #1 5'p-UGAGGUAGUAGGUUGUAUAGUAUCCAGAGG; auxiliary factor: 500 nM mouse GTSF1
How it was run: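 Cleave-'n-Seq: 1 nM active affinity-purified piRISC with one synthetic guide and 0.1 nM transcribed, DNA-blocked target RNA library were mixed, with or without 500 nM GTSF1 partner protein, in HEPES–potassium acetate buffer at 33 °C for 0–8 or 0–960 min. Uncleaved targets were sequenced and normalised to depth and to weakly complementary targets, three trials were pooled, and k3 was capped at 0.0001 min^-1. The pre-steady-state cleavage rate was fitted […].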

Compared with GGAGACCUAACUAUAGAACCUACUACCACA, GGAGACCUAUCUAUACUACCUACUACCUGA is lower in “pre-steady-state target cleavage rate” value: 0.185 ± 0.038 for the first, 0.0141 ± 0.0038 for the second.

Going from GGAGUGGAUACUAUACAACCUACUUGGUCA to GGAGAGGACUACUAUACAACCUACUACCUCA, the “pre-steady-state target cleavage rate” value rises from under 0.0001 to 1.58 ± 0.11.

First: GGAGACCUAUCUAUAGAACCUACUACCUGA
Second: GGAGAGGGAUACUAUACAACCUACUACCUCA
The “pre-steady-state target cleavage rate” value of the first is lower: 0.0987 ± 0.022 for the first, 1.31 ± 0.063 for the second.

First: GGAGACCUUACUAUAGUACCUACUACCUCA
Second: GGAGACGAUACAAUAGAACCUACUACCUCA
The “pre-steady-state target cleavage rate” value of the first is lower: 0.185 ± 0.029 for the first, 0.99 ± 0.062 for the second.

First: GGAGUGGAUACUAUACAACGUACUUCCUCA
Second: GGAGAGCAUACUAUACAACCUACUACGUCA
The “pre-steady-state target cleavage rate” value of the first is lower: 0.127 ± 0.022 for the first, 0.978 ± 0.08 for the second.

Compared with GCUCUGGAUACUAUACAACCUACUACCACA, GGAGUGGAUACUAUAACAACCUACUACCUCA is lower in “pre-steady-state target cleavage rate” value: 1.95 ± 0.13 for the first, 1.45 ± 0.12 for the second.

Compared with GGAGACCUAUCUAUACAAGCUACAACCUCA, GGUCUGGAUACAUUACAACCUACUACCUCA is higher in “pre-steady-state target cleavage rate” value: 0.157 ± 0.018 for the first, 1.57 ± 0.12 for the second.

First: GGAGUGGAUACUAUAGUACCUACUACCUCA
Second: GGAGAGGAUACUAUACAACGUACUACCUCA
The “pre-steady-state target cleavage rate” value of the first is higher: 1.03 ± 0.065 for the first, 0.168 ± 0.027 for the second.

Compared with GGAGACGAUACUAUACAACGUAGUACCUCA, GGACUGGAUACUAUACAACCUUCUACGUCA is lower in “pre-steady-state target cleavage rate” value: 0.141 ± 0.026 for the first, 0.072 ± 0.015 for the second.

Going from GCUCUGGAUACUAUACAAGCUACAACCUCA to CCUCAGGAUACUAUUCAACCUACUACCUCA, the “pre-steady-state target cleavage rate” value rises from 0.995 ± 0.046 to 2.22 ± 0.14.

Going from GGAGACGUUACUAUACAACCUACUACGUCA to CCCUGGAUACUAUACAACCUACUACCUCA, the “pre-steady-state target cleavage rate” value rises from 0.497 ± 0.072 to 2.52 ± 0.18.

Compared with GGAGACCAUACUUUACAACCUACUACGUCA, GGAGACCUAUGAUAUGAUCCUACUACCACA is lower in “pre-steady-state target cleavage rate” value: 0.731 ± 0.069 for the first, under 0.0001 for the second.

GGACUGGACUACUAUACAACCUACUACCUCA and GGAGACCAUACUCUACAACCUACUACCUCA are within error of each other in “pre-steady-state target cleavage rate” value: 1.32 ± 0.1 for the first, 1.24 ± 0.08 for the second.

Compared with CCUCUGGAUUCUUUACAACCUACUACCUCA, GGAGACCUAACUAUACAACCUACAACGUCA is lower in “pre-steady-state target cleavage rate” value: 0.729 ± 0.066 for the first, 0.143 ± 0.042 for the second.

Going from GGAGACGAUACUAUACAACCUAGCUACCUCA to GGAGACCAUCCUAUACAACCUACUACCUCA, the “pre-steady-state target cleavage rate” value rises from 0.178 ± 0.018 to 1.73 ± 0.21.

Going from GCUCUGGAUACUAUACAACCUACUCCCUCA to GGAGUGGAUACUAUACAACCUUCUACCUGA, the “pre-steady-state target cleavage rate” value falls from 1.18 ± 0.083 to 0.102 ± 0.02.

Compared with GGAGACCAUACUAGUACAACCUACUACCUCA, GGACUGGUUACUAUACAACCUACUUCCUCA is lower in “pre-steady-state target cleavage rate” value: 0.58 ± 0.064 for the first, 0.0107 ± 0.0042 for the second.

GGAGACGAUACUAAACAACCUACUACGUCA and GGAGAGGAUACUAUACAACCUACUACCUAA are within error of each other in “pre-steady-state target cleavage rate” value: 0.84 ± 0.075 for the first, 0.961 ± 0.062 for the second.

Compared with CCUCAGGAUACUAUACAACCUACUACGUCA, GGAGACGAUACUAUACUACCUACUACCUGA is lower in “pre-steady-state target cleavage rate” value: 1.31 ± 0.084 for the first, 0.812 ± 0.068 for the second.

Going from GGAGACCAAACUAUACAACCUACUACCACA to GCUGUGGAUACUUUACAACCUACUACCUCA, the “pre-steady-state target cleavage rate” value rises from 0.732 ± 0.1 to 1.62 ± 0.087.
